According to the supplement of paper PMC11166567:
The list shows a part of the results.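 The calls were made as follows: active = permutation test q below 0.05 after Benjamini-Hochberg correction; inactive = q of 0.05 or more.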

Tests used:
[1] = tested on: A549; assay: mean average precision of replicate retrieval against DMSO controls (Cell Painting phenotypic activity) (fraction (0-1)); higher = stronger, more reproducible morphological phenotype distinct from DMSO; extreme values may be limits of the assay; conditions: 5 µM
[2] = tested on: U2OS; assay: as above; conditions: 5 µM
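Also: cosine similarity of well-level aggregated Cell Painting profiles ranks each compound's replicate wells against DMSO wells, four replicate plates, significance from 100,000 rank shuffles.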

| Structure (SMILES) | mean average precision ([1]; 24 h) | mean average precision ([1]; 48 h) | mean average precision ([2]; 24 h) | mean average precision ([2]; 48 h) |
| --- | --- | --- | --- | --- |
| COc1ccc(/C=C/C(=O)Nc2ccccc2C(=O)O)cc1OC | active: 0.697 | active: 0.851 | active: 0.967 | inactive: 0.2 |
| COc1cc2ncnc(Sc3nnc(C)s3)c2cc1OC | active: 1 | active: 1 | active: 0.868 | active: 1 |
| CC1(C)O[C@@H]2C[C@H]3[C@@H]4CCC5=CC(=O)C=C[C@]5(C)[C@H]4[C@@H](O)C[C@]3(C)[C@]2(C(=O)CO)O1 | active: 1 | active: 1 | active: 1 | active: 0.979 |
| Cc1cc(-c2nc(-c3ccc(OC(F)(F)F)cc3)no2)nn1Cc1ccnc(N2CCN(C3CC3)CC2)c1 | active: 0.757 | active: 1 | active: 0.636 | active: 0.777 |
| CC(C)[C@H](CO)Nc1nc(Nc2cc(N)cc(Cl)c2)c2ncn(C(C)C)c2n1 | active: 1 | active: 1 | active: 1 | active: 0.715 |
| CC(C)Oc1ccc(-c2nc(-c3cccc4c3CC[C@@H]4NCCO)no2)cc1C#N | active: 0.681 | active: 1 | inactive: 0.367 | inactive: 0.265 |
| O/N=C/c1ccc(-c2ccc(O)c(F)c2)c(Cl)c1O | inactive: 0.26 | active: 0.657 | active: 0.534 | active: 0.931 |
| CC(C)[C@H](CO)Nc1nc(Nc2cccc(Cl)c2)c2ncn(C(C)C)c2n1 | active: 1 | active: 1 | active: 1 | active: 1 |
| OC[C@H]1O[C@@H](Oc2cc(O)cc(/C=C/c3ccc(O)cc3)c2)[C@H](O)[C@@H](O)[C@@H]1O | active: 1 | active: 1 | active: 1 | active: 0.669 |
| COC(=O)N(C)c1c(N)nc(-c2nn(Cc3ccccc3F)c3ncccc23)nc1N | active: 0.435 | active: 0.422 | inactive: 0.161 | inactive: 0.237 |
| CN(c1ccccc1CNc1nc(Nc2ccc3c(c2)CC(=O)N3)ncc1C(F)(F)F)S(C)(=O)=O | active: 1 | active: 1 | active: 1 | active: 1 |
| C[C@@H]1CN(CC(=O)Nc2ccc3c(c2)Cc2cccc(-c4cc(=O)cc(N5CCOCC5)o4)c2S3)C[C@H](C)O1 | active: 1 | active: 1 | active: 0.536 | active: 0.819 |
| CCC(CC)n1ccc2c(C(=O)NCc3c(C)cc(C)[nH]c3=O)cc(C#N)cc21 | active: 0.56 | active: 1 | active: 0.917 | active: 0.317 |
| Cc1ccc(Nc2nccc(N(C)c3ccc4c(C)n(C)nc4c3)n2)cc1S(N)(=O)=O | active: 1 | active: 1 | active: 1 | active: 1 |
| CC1(C)CNc2cc(NC(=O)c3cccnc3NCc3ccncc3)ccc21 | active: 0.663 | active: 1 | active: 1 | active: 0.458 |
| CC1Oc2cc(cnc2N)-c2c(nn(C)c2C#N)CN(C)C(=O)c2ccc(F)cc21 (stereo not given) | active: 1 | active: 1 | active: 1 | active: 1 |
| OCCN1C[C@@H](O)[C@@H](O)C(O)C1CO (stereo not given in full) | inactive: 0.139 | active: 0.931 | inactive: 0.259 | active: 0.537 |
| CCOC(=O)Nc1ccc(NCc2ccc(F)cc2)nc1N | active: 0.606 | active: 1 | active: 0.826 | active: 0.637 |
| COc1ccc(-c2coc3cc(O)ccc3c2=O)cc1 | inactive: 0.203 | active: 1 | active: 0.567 | inactive: 0.277 |
| COc1ccccc1S(=O)(=O)Nc1ccc2c(c1)CN(C)C(=O)N2 | active: 0.84 | active: 1 | inactive: 0.298 | active: 0.521 |
| CCCCOc1ccc(CC(=O)NO)cc1 | active: 0.326 | active: 0.5 | active: 0.841 | active: 0.381 |
| C/C=C1\NC(=O)[C@H]2CSSCC/C=C/[C@H](CC(=O)N[C@H](C(C)C)C(=O)N2)OC(=O)[C@H](C(C)C)NC1=O | active: 1 | active: 1 | active: 1 | active: 1 |
| CCCOc1ccccc1-c1nc2n[nH]nc2c(=O)[nH]1 | inactive: 0.232 | active: 0.829 | active: 0.551 | active: 0.353 |

| Structure (SMILES) | mean average precision ([1]; 24 h) | mean average precision ([1]; 48 h) | mean average precision ([2]; 24 h) | mean average precision ([2]; 48 h) |
| --- | --- | --- | --- | --- |
| NS(=O)(=O)c1cccc2c1c([N+](=O)[O-])cc1[nH]c(=O)c(=O)[nH]c12 | inactive: 0.173 | active: 0.579 | inactive: 0.0365 | inactive: 0.1 |
| CC(C)C(=O)c1c(C(C)C)nn2ccccc12 | active: 0.338 | active: 0.758 | active: 1 | active: 0.485 |
| Cc1ccc(/C=C2\CNC/C(=C\c3ccc(C)cc3)C2=O)cc1 | active: 1 | active: 1 | active: 1 | active: 1 |
| C[C@@H]1CC2C3CCC4=CC(=O)C=C[C@]4(C)[C@@]3(F)[C@@H](O)C[C@]2(C)[C@@]1(O)C(=O)CO (stereo not given in full) | active: 0.697 | active: 1 | active: 0.667 | inactive: 0.28 |
| CC/C(=C(\c1ccc(O)cc1)c1ccc(OCCN(C)C)cc1)c1ccccc1 | active: 0.759 | active: 0.979 | inactive: 0.279 | inactive: 0.175 |
| CCOC(=O)[C@H](Cc1ccccc1)NC(=O)c1cc(Cl)c(OCCN2CCN(C)CC2)c(Cl)c1O | active: 0.979 | active: 1 | active: 0.788 | active: 1 |
| CN(C(=O)c1ccc(F)cc1C(F)(F)F)C1CCN(c2nnc(-c3ccnn3C)c3ccccc23)CC1 | inactive: 0.265 | active: 0.85 | inactive: 0.197 | inactive: 0.115 |
| NS(=O)(=O)c1ccc(C(=O)O)cc1 | active: 0.939 | active: 1 | active: 0.831 | active: 0.456 |
| CC(=O)Oc1cc2c(s1)CCN(C(C(=O)C1CC1)c1ccccc1F)C2 (stereo not given) | active: 0.645 | active: 0.51 | active: 0.861 | active: 0.547 |
| COc1c2occc2cc2ccc(=O)oc12 | active: 0.497 | active: 0.485 | inactive: 0.24 | inactive: 0.162 |
| N#Cc1ccc(-c2ccc(S(=O)(=O)Nc3cccc(N)n3)cc2)cc1 | active: 0.477 | active: 0.495 | active: 0.652 | inactive: 0.246 |
| CCCCC[C@H](O)/C=C/[C@H]1[C@H](O)CC(=O)[C@@H]1C/C=C\CCCC(=O)O | inactive: 0.219 | active: 0.451 | inactive: 0.272 | active: 0.716 |
| CS(=O)(=O)Nc1ccc(-c2coc3cc(OCc4cccc(C(=O)O)c4)ccc3c2=O)cc1 | inactive: 0.225 | active: 0.314 | inactive: 0.312 | inactive: 0.283 |
| O=C(O)CN1C(=O)c2cccc3cccc(c23)C1=O | active: 0.335 | active: 0.588 | active: 0.463 | inactive: 0.283 |
| O=C(O)c1ccccc1Nc1cccc(C(F)(F)F)c1 | active: 0.505 | active: 0.806 | active: 0.669 | active: 0.459 |
| NCC(=O)Nc1ccc(-n2nc(C(F)(F)F)cc2-c2ccc3c(ccc4ccccc43)c2)cc1 | active: 1 | active: 1 | active: 1 | active: 1 |
| Cc1cn[nH]c1 | inactive: 0.151 | inactive: 0.215 | active: 0.362 | inactive: 0.195 |
| CCN(CC)CCOC(=O)c1ccc(N)cc1 | inactive: 0.315 | active: 0.632 | active: 0.603 | active: 0.568 |
| O=C(c1ccc(Cl)cc1)N(Cc1ccccc1)C1CCCCC1 | active: 0.665 | active: 0.534 | active: 0.677 | active: 0.353 |
| O=C(O)CC(O)(CC(=O)O)C(=O)O | inactive: 0.296 | active: 0.332 | inactive: 0.281 | inactive: 0.131 |
| O=C(NCCCN1CCC2(CC1)OCc1ccccc12)[C@H]1CCCN1Cc1ccccc1 | active: 1 | active: 1 | active: 1 | active: 1 |
| NC(=O)N1CCC(CC(=O)N2CCC([C@H]3c4ncc(Br)cc4CCc4cc(Cl)cc(Br)c43)CC2)CC1 | active: 1 | active: 1 | active: 0.948 | active: 1 |
